# Laboratory results: the BET-seq Pho4 binding data (Le et al. 2018)
# Some of the results follow. The energies were worked out here from pooled read counts, against the library average; single values are noisy.
# Target: T1, Pho4 (S. cerevisiae) (UniProt P07270)
# T1 sequence: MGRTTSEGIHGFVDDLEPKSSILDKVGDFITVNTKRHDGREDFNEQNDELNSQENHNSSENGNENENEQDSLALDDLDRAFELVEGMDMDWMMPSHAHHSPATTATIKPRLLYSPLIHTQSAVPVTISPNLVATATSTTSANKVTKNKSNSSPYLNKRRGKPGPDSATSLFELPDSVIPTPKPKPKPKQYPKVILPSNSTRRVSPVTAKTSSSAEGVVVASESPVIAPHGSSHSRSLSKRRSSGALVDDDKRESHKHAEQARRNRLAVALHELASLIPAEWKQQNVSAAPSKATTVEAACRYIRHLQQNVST
# Assay: relative binding free energy (BET-seq); higher = weaker binding
# Settings: reference: library average
row,Sequence,relative binding free energy [kcal/mol]
1,TTCACCACGTGGGGGG,-0.16
2,AGAGTCACGTGATTGT,0.13
3,TTAATCACGTGTTATA,0.13
4,GTTATCACGTGCTATG,0.04
5,TAGGGCACGTGTGAGC,-0.09
6,GTGCACACGTGGGTGT,-0.02
7,CTATGCACGTGTAAGT,0.04
8,AATCGCACGTGTTAGT,0.05
9,TCGTGCACGTGTATAT,-0.12
10,ATAAGCACGTGTTATT,-0.11
11,TTTAGCACGTGCAAGT,-0.09
12,CTGTTCACGTGGTTAT,0.14
13,AAAGGCACGTGTTCTG,-0.16
14,TAAGGCACGTGGTGCT,-0.16
15,GGGTTCACGTGAGTGT,0.49
16,GGGAGCACGTGGTCGG,-0.24
17,GTTATCACGTGTTACT,0.13
18,CGATACACGTGGGTTT,-0.14
19,AGAGTCACGTGAGTGT,0.19
20,GTTAGCACGTGTTCTG,-0.01
21,AGCGACACGTGTAGGG,0.07
22,GCAGGCACGTGAGAGG,0.18
23,ATGTCCACGTGTGCGT,-0.1
24,ATTTACACGTGTTAAG,0.08
25,TTAGTCACGTGGTGGA,0.01
26,GGTGACACGTGGTGAG,0.01

row,Sequence,relative binding free energy [kcal/mol]
1,CGCGTCACGTGTATGG,0
2,CGGAACACGTGTTGGG,-0.1
3,TGAGACACGTGGGATG,-0.1
4,ATAATCACGTGTTATG,0.04
5,GAGGGCACGTGCTGTG,-0.06
6,TGAAGCACGTGGTACG,-0.1
7,AATTACACGTGTGCTT,0.05
8,CTGGGCACGTGTTAGA,-0.13
9,GCTGCCACGTGGAGGG,-0.05
10,ATAGTCACGTGCAGGT,0.15
11,AAGGGCACGTGATTAT,0.04
12,GATTGCACGTGTGTCG,0.14
13,TTGGACACGTGAAGGT,0.26
14,GGCGTCACGTGGGTAT,-0.06
15,TTTAACACGTGCCGGG,-0.05
16,TGCAGCACGTGTGAGT,0.01
17,TCGATCACGTGTGGCG,0.37
18,CCTTTCACGTGATTTT,0.39
19,TGTCGCACGTGGGGTG,-0.3
20,GTGTTCACGTGACTTT,0.34
21,TTCAGCACGTGCTGGT,-0.03
22,TTGTGCACGTGTCATT,-0.11
23,TTATGCACGTGTGAGT,-0.08
24,TCACTCACGTGTAGTT,0.28
25,TATAGCACGTGTATGA,-0.04
26,TGTGCCACGTGACGGT,-0.05

row,Sequence,relative binding free energy [kcal/mol]
1,GTGTGCACGTGGAACG,0.15
2,ATCGGCACGTGGTGTA,-0.15
3,GGCCTCACGTGTGGTG,0.16
4,TGGTGCACGTGTCTTT,-0.1
5,GGGTTCACGTGTGTAA,0.34
6,GTTAACACGTGAAGGG,0.4
7,GGAGTCACGTGTCGTG,0.2
8,TTCAACACGTGGGGGT,-0.09
9,TTAATCACGTGGCTTG,-0.02
10,TGGTGCACGTGGAGCA,0.07
11,TTGAGCACGTGCTGGA,-0.2
12,AAATTCACGTGAATTT,0.49
13,GTGGTCACGTGCTAGA,0.08
14,TATCTCACGTGGGAAT,0.27
15,AATCTCACGTGGTTTG,0.14
16,TCTGTCACGTGTCTGT,0.07
17,ATTTTCACGTGTCGAG,0.17
18,TGAGGCACGTGGCATA,-0.29
19,GTTTACACGTGGTAGC,0.1
20,TATTGCACGTGACGTG,-0.01
21,GCGTCCACGTGGGGAG,0.07
22,GGTGACACGTGGGTCA,-0.12
23,AGGTACACGTGGGAAT,-0.03
24,TGGGTCACGTGTGAGC,0.3
25,ATTTTCACGTGTTGAC,0.34
26,GGGGTCACGTGTCTCG,0.15

row,Sequence,relative binding free energy [kcal/mol]
1,CATTACACGTGCGGGG,0.09
2,TGTACCACGTGTGTTG,-0.03
3,AGGTTCACGTGTGTCG,0.28
4,ATTATCACGTGAAGGG,0.2
5,CGTGACACGTGTAATT,0.09
6,AATGGCACGTGGGAGA,-0.12
7,CCGGGCACGTGGGGTC,-0.17
8,CGGGTCACGTGTTATA,0.16
9,AGAGGCACGTGGGTGT,-0.2
10,TATTTCACGTGAAGAA,0.34
11,ATACGCACGTGTTGTA,-0.22
12,ATTGGCACGTGTGATA,0.05
13,CATAGCACGTGTTTTA,0.03
14,TCTTTCACGTGAATTG,0.26
15,CTGTACACGTGGCGTT,0
16,TACAGCACGTGGGTGT,-0.19
17,GCTGACACGTGTGGGG,0.01
18,GATGACACGTGGGTGT,-0.12
19,TGAGTCACGTGGGTCT,-0.01
20,GTGCGCACGTGGGGCC,-0.25
21,TTTGGCACGTGATACG,0.04
22,GGTGACACGTGTTGGG,0.09
23,AGGATCACGTGGGTTA,0.15
24,TGAAACACGTGTGTGA,0.06
25,TTGGTCACGTGGAGTC,0.23
26,CAAGGCACGTGGGAGG,-0.16

row,Sequence,relative binding free energy [kcal/mol]
1,GGGTTCACGTGGTTCC,0.25
2,TCTCGCACGTGTGTGG,-0.07
3,AAGGGCACGTGTTCGT,-0.25
4,AATTACACGTGGAAAT,0.39
5,ACCGTCACGTGTGTGT,0.13
6,AGTTGCACGTGTACTT,0.03
7,GTCGGCACGTGTGCTG,-0.03
8,CTTTGCACGTGTTTGG,-0.03
9,CGAGGCACGTGTGTTC,0.08
10,TTGTCCACGTGGGAGG,-0.08
11,ATTGCCACGTGAGGGA,0.11
12,CTTAGCACGTGGTTTG,-0.11
13,TTAAGCACGTGGGATG,-0.2
14,TGTTTCACGTGGAGCG,0.28
15,TATGTCACGTGCGGTG,0.11
16,CAGTGCACGTGCGGTG,-0.07
17,TATGTCACGTGGTGAC,-0.01
18,TTATGCACGTGTAGTC,0.02
19,ATTGACACGTGTGACT,0.1
20,GGAGTCACGTGCGATT,0.21
21,GGGGTCACGTGAGCGT,0.23
22,CTTATCACGTGTTATG,0.1
23,ATGGTCACGTGTATTG,-0.01
24,TTTTTCACGTGTCATT,0.27
25,TTTGTCACGTGGTAAC,-0.01
26,TCGAGCACGTGTGATG,-0.05

row,Sequence,relative binding free energy [kcal/mol]
1,TGGCTCACGTGGTAGA,0.28
2,TAAAGCACGTGATTGT,-0.03
3,AATGACACGTGTAGGG,0
4,ATGGTCACGTGTAACG,0.1
5,CGATGCACGTGGGTTC,0.01
6,GCGGGCACGTGGGGTA,-0.2
7,AAACTCACGTGTGTGG,0.29
8,TGGCGCACGTGGCAAG,-0.11
9,GTGAGCACGTGGCTGT,-0.12
10,ATAGTCACGTGTTAAA,0.11
11,GCTTACACGTGGAGTT,0.18
12,GGAATCACGTGTTGTT,0.2
13,TCGTGCACGTGGTGTT,-0.15
14,GGATGCACGTGTTCAG,0
15,ACAATCACGTGGGGTG,-0.09
16,TTATTCACGTGCCGGG,0.23
17,CTTTACACGTGCTTTT,-0.02
18,GGGTGCACGTGCCTTG,-0.09
19,AATAGCACGTGGAGGT,-0.16
20,TTCATCACGTGCGTTT,0.21
21,TAGAGCACGTGTGGGC,-0.13
22,TTATGCACGTGTCGCT,0.01
23,GGTAACACGTGGTAAG,-0.04
24,AATTTCACGTGAAAAT,0.4
25,ATGCGCACGTGCGTGG,-0.24
26,TATTTCACGTGCTGCG,0.22

row,Sequence,relative binding free energy [kcal/mol]
1,TGGTACACGTGTATTC,0.03
2,GGGCTCACGTGTCGTG,0.27
3,CGAGACACGTGGAGTG,0.02
4,TGAGTCACGTGTTTAA,0.1
5,CGTGTCACGTGGTTCG,-0.12
6,TGTGACACGTGTCGGG,-0.02
7,GTGGTCACGTGCGAGC,0.28
8,TATTGCACGTGTAGGA,-0.01
9,TTGGACACGTGGGATG,-0.02
10,TGCTGCACGTGTGTGT,-0.06
11,GTTGGCACGTGGTTTT,0.02
12,TTCGTCACGTGCTGTA,0.04
13,GTTTTCACGTGGGTGC,0.28
14,TGAGTCACGTGGTCTA,0
15,ATGTTCACGTGTGCGG,0.26
16,TTGTGCACGTGCGACT,0.03
17,GACGGCACGTGGGCTG,-0.21
18,ATATTCACGTGCGGGC,0.26
19,TATGGCACGTGCGGGC,-0.07
20,CGATGCACGTGTGTTG,0.04
21,TGGTCCACGTGCTTGG,-0.12
22,TCGTTCACGTGAATGG,0.4
23,GTTTACACGTGACTTT,0.2
24,TGTCCCACGTGTGTGG,0.02
25,GGGATCACGTGAAGTA,0.41
26,TAGATCACGTGGATGG,0.12

row,Sequence,relative binding free energy [kcal/mol]
1,GATGGCACGTGGGGAC,-0.05
2,TTAGTCACGTGAGGTA,0.36
3,ATTCACACGTGTGTAT,0.16
4,TTTCTCACGTGGGGTT,0.11
5,TGTGCCACGTGGGTGG,-0.17
6,TGTGCCACGTGGTTCT,-0.17
7,CTGGTCACGTGGGATA,0.06
8,GTGTTCACGTGGTACA,0.22
9,TACGTCACGTGTTGAG,0.12
10,ATGTGCACGTGCGTAA,-0.08
11,ATATTCACGTGGGACT,0.11
12,AAATCCACGTGGGGGG,0
13,TTGGTCACGTGTAAGA,0.08
14,TGAAGCACGTGTCTGG,0
15,ACTTGCACGTGGTTAT,-0.17
16,GGTAGCACGTGGTTTC,-0.14
17,GAAGTCACGTGTAGTT,0.24
18,TGTTTCACGTGGTGAC,0.2
19,AGGTCCACGTGGTGAG,-0.04
20,GTTTTCACGTGGACTA,0.26
21,GTCAGCACGTGTTTAG,-0.09
22,ATGAACACGTGTGTAG,-0.02
23,AGAGTCACGTGACGTG,0.29
24,AGGTTCACGTGAAGTA,0.39
25,TAGTGCACGTGGATGG,-0.01
26,TGGCTCACGTGGTGCT,0.27

row,Sequence,relative binding free energy [kcal/mol]
1,GTGCACACGTGTGAGT,0.18
2,GGAATCACGTGTGTTG,0.11
3,AAGGACACGTGAAGGG,0.3
4,TTTGGCACGTGTTAGA,-0.01
5,AAGTTCACGTGGGATT,0.28
6,AGACGCACGTGGGGGT,-0.3
7,GTTGTCACGTGCATTA,0
8,TTGAACACGTGAATGG,0.32
9,CAGGGCACGTGGCGCT,-0.13
10,ATGTGCACGTGTGTAG,0.03
11,ACTTTCACGTGTGCGT,0.14
12,TCTTTCACGTGTGGAG,0.33
13,TAAAGCACGTGGGTAA,-0.21
14,CGGGGCACGTGATGTC,-0.03
15,TTCGGCACGTGGGCGC,-0.2
16,GATTTCACGTGGGTGT,0.22
17,GGAAGCACGTGCATGG,-0.14
18,TGGTACACGTGGTGAA,-0.02
19,TGGTCCACGTGGTTGG,-0.04
20,AGTGTCACGTGGGGGG,-0.08
21,AGGAGCACGTGATAGT,-0.01
22,GTTAGCACGTGGGGGC,-0.14
